Test results published in PubChem BioAssay (NCI).
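The compound was tested at five concentrations on cells cultured in 96-well plates, with a 48-hour exposure period. GI50 = concentration required for 50% inhibition of growth. TGI: concentration producing complete growth inhibition.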

Tested on: NCI-H322M lung
Assay: inhibition of tumour cell growth, NCI panel, 48 h

Structure (SMILES) | TGI [µM] | GI50 [µM]
NS(=O)(=O)c1ccc(NS(=O)(=O)c2ccc(NC(=O)N(c3ccccc3)c3ccccc3)cc2)cc1 | > 100 | 
CCCCCC(=O)OCC1(CO)C/C(=C/CC(C(C)C)C(C)C)C(=O)O1 (stereo not drawn) | > 75 | 
Cc1cncc2cccc(S(=O)(=O)N3CCCNC[C@@H]3C)c12 | > 100 | 72.4
CCOC(=O)c1sc2[n+](c1C)C(=O)/C(=C/c1ccccc1Cl)S2 | 64.1 | 
C/C(=N/OCCC(=O)O)C1CC1 | > 100 | 
CC1CC2OC(=N)C1(C#N)C2(C#N)C#N (stereo not drawn) | > 100 | 
c1cc[c]([Sn]([O]c2cccc3cccnc23)([c]2ccccc2)[c]2ccccc2)cc1 | 0.0398 | 0.0144
CN(C)CC(C)(C)C(=O)/C=C/c1ccccc1 | 27.6 | 
CO[C@H]1/C=C/C=C/C=C/C[C@H](OC(=O)[C@@H](C)NC(=O)C2CCCCC2)[C@H](C)[C@@H](O)/C(C)=C\CCC2=CC(=O)C=C(NC(=O)C1)C2=O | 1.3 | 0.14
CC(=O)OC1CC2C(C)(C)C(=O)C=C[C@]2(C)C2CCC3(C)C(=CCC3[C@H](CO)C[C@H](O)C(=O)C(C)(C)O)[C@]12C (stereo partly drawn) | 60.7 | 
O=C(CSCC(=O)N/N=C\c1cccc(Br)c1)N/N=C\c1cccc(Br)c1 | 27.4 | 
COc1nc2ncc([C@@H](O)[C@H](O)CO)nc2c(=O)[nH]1 | > 100 | 
COC1OC(=O)C(OC)C(OC)C1OC (stereo not drawn) | > 100 | 
CN(C)CCSc1nccc(-c2ccc(-c3ccnc(SCCN(C)C)n3)s2)n1 | 26 | 
C=C(C)[C@@H]1CC[C@@H]2C(=CC[C@]3(C)C([C@H](C)CC/C=C(/C)C(=O)O)CC[C@@]23C)[C@@]1(C)CCC(=O)O (stereo partly drawn) | 62.8 | 
O=C(/C=C/c1ccc(OCCCOc2ccc(/C=C/C(=O)c3ccc(Cl)cc3)cc2)cc1)c1ccc(Cl)cc1 | > 100 | 
COc1cc2ccc(C(=O)O)cc2cc1OC | > 100 | 
COc1cc(C)c(S(=O)(=O)N(CCCN)OCCCN)c(C)c1C | > 100 | 
Cc1cnc2[nH]c(-c3sccc3C)cc(=O)c2c1 | > 100 | 

Structure (SMILES) | TGI [µM] | GI50 [µM]
Cc1cc(=O)oc2c(CN(CCCl)CCCl)c(O)ccc12 | > 100 | 
CCC[CH2][Sn]1([CH2]CCC)[O]N=Cc2ccccc2[O]1 | 4.13 | 1.92
c1ccc2c(Nc3ccc4c(c3)OCO4)c3ccoc3nc2c1 | 41.2 | 23.4
CN(C)/C=C/C(=O)c1cccc(C(=O)/C=C/N(C)C)n1 | > 100 | 
BrCC[N+]12CCCN1CCC2 | 30.2 | 
CC(C)N(C(=O)C12C3C4C5C3C1(C(=O)N(C(C)C)C(C)C)C5C42)C(C)C (stereo not drawn) | > 100 | 
O=C(CN1CCN(c2cc3c(cc2F)c(=O)c(C(=O)O)cn3C2CC2)CC1)Nc1ccc(C(=O)/C=C/c2ccccc2)cc1 | 58.7 | 4.04
C/C(=N\Nc1nc2ccccc2n1C)c1ccncn1 | > 100 | 
CC1CC(=O)CC[C@@H]1OCc1ccccc1 (stereo partly drawn) | > 100 | 
CCOC(=O)Nc1ccc2nc(Sc3ccc(Cl)cc3)sc2c1 | > 100 | 25
CC(C(=O)C(C)O[Si](c1ccccc1)(c1ccccc1)C(C)(C)C)=P(c1ccccc1)(c1ccccc1)c1ccccc1 (stereo not drawn) | 12.8 | 
O=C(OCC(OC(=O)c1ccccc1)C1CC(C(O)C2CCCCC2)C(=O)O1)c1ccccc1 (stereo not drawn) | > 100 | 
O=c1[nH]c(=O)c2c([nH]1)[nH]c1ccccc12 | > 100 | 
COc1ccccc1NC(=O)NS(=O)(=O)c1ccccc1 | > 100 | 
Nc1cc2ccncc2c2ccccc12 | 94.6 | 16.8
CC(=O)OCC12C(OC(C)=O)C[C@@H](C)C3(CC(c4ccoc4)OC3=O)C1CCC(OC(C)=O)C21CO1 (stereo partly drawn) | > 100 | 
CC[C@@]1(O)C(=O)N(CCN(C)C)Cc2c1cc1n(c2=O)Cc2cc3ccccc3nc2-1 | > 100 | 75.4
CC1CCCc2c(CC3CC(=O)NC(=O)C3)nc(N)nc21 (stereo not drawn) | > 100 | 
CC1C/C(=C\c2ccc(O)c(O)c2)C(=O)/C(=C/c2ccc(O)c(O)c2)C1 (stereo not drawn) | 26.8 | 

Structure (SMILES) | TGI [µM] | GI50 [µM]
CC(=O)c1c2c(cc3c1CCC3)CCC2 | > 100 | 
C(=N\Nc1nnc(-c2nnc(N/N=C/c3ccccc3)o2)o1)/c1ccccc1 | > 10 | 
Cc1nc2ccccc2nc1N1CCCC1 | > 100 | 
CCOC(=O)CCC1(C(=O)O[C@@H]2C[C@H](C)CC[C@H]2C(C)C)CCCCC1=O (stereo partly drawn) | > 100 | 
C=C1CC2C[C@H](OS(=O)(=O)c3ccc(C)cc3)C(C1)N2C (stereo partly drawn) | > 100 | 
CC(=O)N1C(=O)/C(=C\C(=O)c2ccc(Cl)cc2)c2ccccc21 | 48.2 | 
Cc1cnc2cc(Cl)ccc2c1SCC(=O)O | > 100 | 
Cc1c(-c2ccnc(N)n2)c2c(n1-c1ccccc1)C(=O)c1ccccc1C2=O | 53.2 | 16
CC1=CCC(=O)[C@]2(C)C(CC(=O)O)[C@]3(C)C4=C(C)C(c5ccoc5)C[C@@H]4O[C@@H]3[C@H](O)[C@@H]12 (stereo partly drawn) | > 100 | 
O=[P+](O)c1cc2c3ccccc3ccc2c2ccccc12 | > 100 | 
O=C1CSC(c2cc3cc(Br)ccc3nc2Cl)N1c1ccc(F)c(Cl)c1 (stereo not drawn) | > 50 | 
Fc1ccc(-c2ncn(C3CCNCC3)c2-c2ccnc(Oc3ccc(Oc4ccccc4)cc3)n2)cc1 | 7.98 | 4.31
Clc1cc(-c2csc(Cl)c2)cs1 | > 100 | 
C/C(=N/NC(=O)c1ccccc1Nc1ccccc1C(=O)N/N=C(\C)c1ccc(C)cc1)c1ccc(C)cc1 | > 100 | 
CC(NC1=NCCO1)c1ccco1 (stereo not drawn) | > 100 | 
CCOC(=O)C1=C(C)N(c2ccc(Cl)cc2)C2(O)C=CC(=O)C3C(=O)N(c4ccccc4)C(=O)C132 (stereo not drawn) | 6.79 | 
CC1CC/C(=C\c2ccc(F)cc2)C2=C1C(c1ccc(F)cc1)NC(=S)N2 (stereo not drawn) | > 100 | 
CC(C)=CCCC1(C)C=Cc2c(ccc3c2[nH]c2cc(O)c(C)cc23)O1 (stereo not drawn) | 16.1 | 6.66
